Data reported in publication PMC12136788.
The other results are listed elsewhere or left out.

B1: chr14:102359341:102359342:+_ENSG00000078304_ENST00000445439|hu_mus|FALSE|FALSE (ssRNA)
RNA: GGGAGUUCUACAGUCCGACGAUCCUUCAGUGGUAAGGCAAAUCCAUUAAUUAUACUUCCCAGGAUCUCCAGUAACUCCGCUAUGCCAUUGUGAUGCUCUGUCUCAUAGAUAAACCUAUAAAAUAUAUUAUUGAUCUGUUUCCUCAACAGAGGAUUGAGCAUCA
B2: 125852589_125860064_2747_CDS_ENSG00000011454_ENST00000373647|human|control|control (ssRNA)
RNA: GGGAGUUCUACAGUCCGACGAUCGGUCAUCAGCAGCUCCUUAUUCAGAGCAUCUGCCUUUUCCUCAGCGUUAUCCAGGUCCUUCCGUAGUGCAAUCUUGCUGGUCACCAGCUCAUGGGCUAAGUCAUCGUUUUCCUGUUCCAACAACAGAGGAUUGAGCAUCA
B3: 16165095_16168310_1563_CDS_ENSG00000169762_ENST00000405303|human|control|control (ssRNA)
RNA: GGGAGUUCUACAGUCCGACGAUCAUUUUCCUUUUGAUGAAUAGGUUGUUUGGUGAUGGAGGCAGACAGGUUUUCUUCUGUGGAAAGGCCUUGAGAGGGUUUACAUUUGUUCUGUGAUUUACUGGACGGCUUGCCUGGAGUGCACAACAGAGGAUUGAGCAUCA
B4: chr2:31148548:31148549:+_ENSMUSG00000062661_ENSMUST00000000199|mus_hu|FALSE|FALSE (ssRNA)
RNA: GGGAGUUCUACAGUCCGACGAUCCUGGAGGGAACAGUGCAUUAGCCAUUUAGGAAUUUCCACCUCUCCCCUCUCCAAAAAUCAAGCACAGUAUCUGAAAAAAAAAAAAUUUUUUUUGGCUUCUUGGCCGCUGCAGGCCACCAUCAACAGAGGAUUGAGCAUCA
B5: chr6:114270206:114270207:-_ENSG00000196591_ENST00000368632|hu_hu|motif|central (ssRNA)
RNA: GGGAGUUCUACAGUCCGACGAUCUACAACUUCUACACAUUUAGCAUGACCUUUGACUGUUAGAUUGAAACAACCCAGUCGGUCACCAGAUAAUGAGUCUGCACCACACUGUAAUACCACAGCACUAGGUUGAUACAUCUCCAUCAACAGAGGAUUGAGCAUCA
B6: 27447925_27448045_1656_CDS_ENSG00000084774_ENST00000264705|human|control|control (ssRNA)
RNA: GGGAGUUCUACAGUCCGACGAUCAAAGGCCCGUCGAUCCUCGGUCAGCUCAAUGGUCUCCACUGGUGUGCCCAGGACCCGGACCCCAUACCGAGCCAGCACCCCGGCCUUGGUCAGCUCCACACCACAGUUCAGAGCAGUCUGCAACAGAGGAUUGAGCAUCA
B7: chr5:136386232:136386233:-_ENSMUSG00000051391_ENSMUST00000055808|mus_mus|motif|central (ssRNA)
RNA: GGGAGUUCUACAGUCCGACGAUCAAACUGAGAACCCAUGGCUUGGCGUCAUGUAUGGCUGUCAUGUAUAAAUACUGUAAACGGCAAUUGAGUGUUAAUACUGUCAACCCGUCAGAGACUUCCAAAUACAGGGCCACGUCUAACCAACAGAGGAUUGAGCAUCA
B8: 69154069_69154189_1013_3pUTR_ENSG00000144746_ENST00000273258|human|control|control (ssRNA)
RNA: GGGAGUUCUACAGUCCGACGAUCUGUCAUCUACUUUAACAGCCUUUUCAUUUACUCGUAUUGUCUUGAUACUUUACAAUGAUUUUUUUUUUCCUAUAAGAUAAUCGUAUUGUUGCUGUAAAAGCCGUAAUUCUUUUAUUUUUUCAACAGAGGAUUGAGCAUCA
B9: chr19:36949789:36949790:+_ENSMUSG00000024811_ENSMUST00000025729|mus_hu|FALSE|FALSE (ssRNA)
RNA: GGGAGUUCUACAGUCCGACGAUCAUGUAAAGGAAUAAGUCCUCCUUUGUCUUGGGCAUUCACAUCAGCUCCGUGUUGUAACAAAUACUCUGCAACUUCUAAAUUAUUAUAACCAGCUGCUAAAUGUAAAGGUGUUGAAUGUCUCAACAGAGGAUUGAGCAUCA
B10: chr1:201932794:201932795:+_ENSG00000134375_ENST00000367287|hu_mus|FALSE|FALSE (ssRNA)
RNA: GGGAGUUCUACAGUCCGACGAUCAAGGCACCGCUAGUGAUGGAGUUCCAGGGGUCUUCUUUGCCUCGUAUUUGAACCAUACUGCAGUCAAUCGUGGAAAACAGUCCUCCCCAAACUGCAAAGCUACCUCCCAACUGUGGAGCCCAACAGAGGAUUGAGCAUCA
B11: chr6:38652254:38652255:-_ENSG00000124767_ENST00000373365|hu_hu|hu_hu_hu_mus_False|58_108 (ssRNA)
RNA: GGGAGUUCUACAGUCCGACGAUCCGAAAACUUCAUAGCAGGGAAGUCAAGCUUCUGCAGGAGGGUCAGUCCAAGAACUCUAGUAUAAAAAUCCAGGGACUUCUUAGGAUCCUUAAUUCUUAGCAUCGUUUGCUGCAGUAGAAACAACAGAGGAUUGAGCAUCA
B12: chr4:136892031:136892032:-_ENSMUSG00000006699_ENSMUST00000030417|mus_hu|FALSE|FALSE (ssRNA)
RNA: GGGAGUUCUACAGUCCGACGAUCCACACUUAAUUGUCUGCAUUGCUGAAAUAGUUUUGUAUCCACUUUAAAUAUUUCAAAUCUGAUGAUGACCUCAGCUUCUCCACCGGGGCGUUGGCAGCACUGCGCGGGGUCUCCUCGGCUCAACAGAGGAUUGAGCAUCA
B13: chr7:7679991:7679992:-_ENSG00000106399_ENST00000396682|hu_hu|hu_hu_hu_mus_False|1_38 (ssRNA)
RNA: GGGAGUUCUACAGUCCGACGAUCUGGGAUGAAUCUUUUCCAGCUUCCCCACGAAGCACACGGGCCGGUCGAUAUACUGUGGUAACAUGCUGGCGUUGAUGCGCGACUUGGGGAGCUGCAUUAUGUCCUCCAUGAUUAUGGUCCCAACAGAGGAUUGAGCAUCA
B14: chr11:20626769:20626770:-_ENSMUSG00000049659_ENSMUST00000146722|mus_hu|FALSE|FALSE (ssRNA)
RNA: GGGAGUUCUACAGUCCGACGAUCAACACAAACCUGAUCCUCUCCAUCAGUGUCUCCUUUGUUAUCCAAGCUUCUACCCAAAGCCACUUCUUUUACAGAAUUCAGUUCAUUGACUCUAUUAAUUUUAUUGUUUUCCCGAAUGGUCAACAGAGGAUUGAGCAUCA
B15: chr2:49626764:49626765:+_ENSMUSG00000026764_ENSMUST00000028102|mus_mus|motif|central (ssRNA)
RNA: GGGAGUUCUACAGUCCGACGAUCCAAGCACGUAUCUGUGCACACAAAUUCUACACAGCGCAAACACCUGAAUCUGGUGUACGGCAGACGGCUGGGCAAGCAAGUGUAAAAAGAAACGGAAACUGUAUAGGAGGGGACAGAAAGCAACAGAGGAUUGAGCAUCA
B16: chr3:196311160:196311161:+_ENSG00000174013_ENST00000440469|hu_mus|FALSE|FALSE (ssRNA)
RNA: GGGAGUUCUACAGUCCGACGAUCACUCUUCUUCUUUCCAGAAAGUCACUGUCAUCCAUCCAGAGGUUUUCCAAGAUAAACCAAAGUCACUUCUGUGUUGCCAUAUACUGCAGAGACAGCUGGGUAUAAGCAGGCUUUUGGAAGCAACAGAGGAUUGAGCAUCA
B17: chr17:49118984:49118985:-_ENSG00000008294_ENST00000510283|hu_hu|motif|central (ssRNA)
RNA: GGGAGUUCUACAGUCCGACGAUCUCCUUUCUGAGCAUCAGGUGUAAGCAAUCCAUCUCCAGCAGGUAAUGGGAAAAUUCCGGAUGAUAUAGGGCGUUCUUUUCUGAGUAUCCUUGGUAGGUUCUGCGUCAGAGCUGGCACACCCAACAGAGGAUUGAGCAUCA
B18: chr17:73267850:73267851:+_ENSMUSG00000024063_ENSMUST00000024857|mus_hu|FALSE|FALSE (ssRNA)
RNA: GGGAGUUCUACAGUCCGACGAUCGGGAAAUAUAUAGACAUGAAGUCCUAGGGCAGGCUGACACACGCCCCUGUGAUUUAAAAACGGUCCCUGCGUCCCGAGUGAGGAUGACACGGGCGCAGACGGGCACGGCAGGCGGCCGAGCAACAGAGGAUUGAGCAUCA
B19: 131922701_131927820_1994_CDS_ENSMUSG00000029673_ENSMUST00000160071|mouse|control|control (ssRNA)
RNA: GGGAGUUCUACAGUCCGACGAUCGUUACUGUGAUGAGGUGGUGGCCCAAAAGGGGUCCCAGUAGGAUGUGCAGCACCAGCGGCAGAGAAUAAAGUGGAAGGUCGUGCCAGAUCGUGGGGGUGAUGGAUGGCUCCGAAGAGACUCAACAGAGGAUUGAGCAUCA
B20: chr1:150923288:150923289:+_ENSG00000143379_ENST00000271640|hu_mus|FALSE|FALSE (ssRNA)
RNA: GGGAGUUCUACAGUCCGACGAUCCAAACAGAACAUCUCCAGGAACAGAAAGUCACAGCCAGUCUCAAAAAGGUAGCGCUCUAUCUCCUGCAUCGUCCGAAGGCAGAGACCACAGGGUGUCUUAUAGAUUACAUGAAAGCCCAUCAACAGAGGAUUGAGCAUCA
B21: chr1:25124269:25124270:+_ENSG00000169504_ENST00000374379|hu_hu|FALSE|FALSE (ssRNA)
RNA: GGGAGUUCUACAGUCCGACGAUCUACAACUCCUUUGAGCCAAAGAAUCAUGAAGAGCCUCUGGGAAAAGGGGCAGUUUCCUAUGCUUUCACCAUCACUGCCAGCCUUGACGAAGAGCUCGAUGAGGGGCUCUUUGUCCUCCUCCAACAGAGGAUUGAGCAUCA
B22: 191300769_191300889_209_3pUTR_ENSG00000151690_ENST00000281416|human|control|control (ssRNA)
RNA: GGGAGUUCUACAGUCCGACGAUCUCUGUGGAGGAAGGUGUUUCAUUCGAAGGUGGUUCUGGUUCCCUGGAAAUACCAUUAAAGGGAUCUGCAAGCACAUACUUUCUCUUCUGUUCCUCUUCAUCAUCCGUUAAGAUAGCAACUCAACAGAGGAUUGAGCAUCA

The binders below were run against T1, UNK ZnF1-3 (human, UniProt Q9C0B0 31-174) (assay: nsRBNS (natural sequence RNA bind-n-seq); RBNS binding buffer (assumed for nsRBNS): 25 mM Tris pH 7.5, 150 mM KCl, 3 mM MgCl2, 0.01% Triton X-100, 500 ug/ml BSA, 20 U/ml SUPERase-In, 4 C; UNK is unkempt and MSI1 is Musashi-1; names of the RNAs are library labels; protein concentration not given here; high values mean tight binding).
T1 sequence: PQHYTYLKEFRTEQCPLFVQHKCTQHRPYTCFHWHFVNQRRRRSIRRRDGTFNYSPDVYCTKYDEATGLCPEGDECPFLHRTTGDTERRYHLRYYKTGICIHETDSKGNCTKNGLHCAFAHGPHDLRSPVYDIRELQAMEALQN
Work on B1 yielded a binding signal of 1.43 enrichment R. Binder B2 has a binding signal of 0.723 enrichment R. B3 was tested, and the binding signal was 0.74 enrichment R. With B4 the binding signal was 1.31 enrichment R. B5 showed a binding signal of 0.904 enrichment R. B6 showed a binding signal of 0.81 enrichment R. With B7 the binding signal was 1.29 enrichment R. B8 showed a binding signal of 0.328 enrichment R. B9 showed a binding signal of 0.786 enrichment R. B10 was tested, and the binding signal was 1.51 enrichment R. For B11, the binding signal was 1.07 enrichment R. B12 gave a binding signal of 0.999 enrichment R. With B13 the binding signal was 0.374 enrichment R. With B14 the binding signal was 1.08 enrichment R. B15 gave a binding signal of 1.56 enrichment R. In the case of B16, the binding signal is reported as 1.13 enrichment R. B17 was tested, and the binding signal was 1.54 enrichment R. B18 showed a binding signal of 1.24 enrichment R. With B19 the binding signal was 1.73 enrichment R. Binder B20 has a binding signal of 1.49 enrichment R. Work on B21 yielded a binding signal of 0.979 enrichment R. Binder B22 has a binding signal of 0.863 enrichment R.
